Results published in PubChem BioAssay AID1468 (National Center for Advancing Translational Sciences (NCATS), 2008).
Out of some 280,000 compounds screened, about 1,100 (0.39%) were called active. Inconclusive means that the source gave no clear call. Such entries were picked first, then a sample of the others. The call rests on the fitted dose curve; in most records, active means well fitted inhibition curve with a large enough effect; inconclusive means small, poorly fitted or top-dose-only effect, or effect the other way; inactive means flat fitted curve, though single readings scatter. Potencies beside an inconclusive call are fits to weak or partial responses and may not hold up.

Target: Microtubule-associated protein tau (Homo sapiens) (UniProt P10636)
Sequence of UniProt P10636 (P10636 whole entry, looked up): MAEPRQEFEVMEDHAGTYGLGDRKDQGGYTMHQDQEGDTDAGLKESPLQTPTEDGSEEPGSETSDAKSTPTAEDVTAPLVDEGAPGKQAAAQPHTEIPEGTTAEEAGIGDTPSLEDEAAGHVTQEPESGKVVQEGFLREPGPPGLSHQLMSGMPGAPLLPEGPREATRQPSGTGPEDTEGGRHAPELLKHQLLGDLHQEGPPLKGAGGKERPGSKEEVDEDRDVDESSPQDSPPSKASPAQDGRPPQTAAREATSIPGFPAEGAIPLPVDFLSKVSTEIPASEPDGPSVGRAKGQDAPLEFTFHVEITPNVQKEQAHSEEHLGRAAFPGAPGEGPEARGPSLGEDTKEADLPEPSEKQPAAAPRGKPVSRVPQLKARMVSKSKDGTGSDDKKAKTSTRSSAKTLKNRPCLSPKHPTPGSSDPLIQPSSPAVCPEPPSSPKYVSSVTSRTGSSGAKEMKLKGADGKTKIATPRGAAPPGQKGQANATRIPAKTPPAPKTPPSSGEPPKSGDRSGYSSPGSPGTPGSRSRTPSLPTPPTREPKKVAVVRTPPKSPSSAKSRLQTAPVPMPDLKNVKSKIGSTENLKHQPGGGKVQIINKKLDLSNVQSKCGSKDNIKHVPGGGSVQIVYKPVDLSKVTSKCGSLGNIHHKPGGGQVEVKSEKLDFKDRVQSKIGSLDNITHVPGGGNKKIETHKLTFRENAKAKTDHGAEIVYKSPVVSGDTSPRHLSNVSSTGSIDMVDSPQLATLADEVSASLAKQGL
Assay: qHTS for Inhibitors of Tau Fibril Formation, Fluorescence Polarization; further: nearly all actives have a fitted effect of over 55% in size
Conditions: K18 P301L tau heparin fibrillization, Alexa594 FP, 6 h; series mostly up to 57.7 µM
Method in brief: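 Read-out: fluorescence polarization of Alexa 594-labeled tau (0.24 uM), 555 nm excitation, 632 nm emission. Mixtures held 15 uM unlabeled K18 P301L, compound and 20 uM heparin, pH 7 acetate buffer, incubated 6 hr at 37 C.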
Potency means the concentration at half of the fitted maximal effect; tags describe the fitted curve by direction and shape.

Potency, inactive:
COCC(C)NC(=O)NC1(C(F)(F)F)Oc2ccc(Cl)cc2O1 (stereo not drawn)
CC1=C(C(=O)Nc2ccccn2)C(c2ccc(Br)cc2)NC(=S)N1 (stereo not drawn)
CCCCOC(=O)c1ccc(OC(=O)c2sc3ncn(Cc4cccc(F)c4)c(=O)c3c2C)cc1
CC1CCN(c2nc(-c3cccnc3)nc3scc(-c4ccccc4)c23)CC1
COc1ccc2c(c1)cc(C(=O)O)n2C
O=C(NCCOCCOCCNC(=O)c1cccnc1)c1cccnc1
Cc1cccc(NC(=O)CSc2nnc([C@@H]3CCCN3C(=O)OC(C)(C)C)o2)c1C
O=C1c2ccccc2C(=O)N1CCSc1ccccc1
Cc1cccc(NC(=O)C2CCCN(S(=O)(=O)c3ccc4c(c3)oc(=O)n4C)C2)c1C (stereo not drawn)
COC(=O)c1c(NC(=O)COc2ccc(C)cc2Br)sc2c1CCCC2
COc1cccc(/C=N/Nc2snc(SC)c2C#N)c1
CC(Sc1nnnn1-c1ccccc1)C(=O)Nc1ccc(Cl)cn1 (stereo not drawn)
Cc1ccc(C)c(N=Nc2ccc(O)c3ncccc23)c1
Cc1ccc(OCCn2c(CNc3ccccc3C)nc3ccccc32)cc1
CC(C)NC(=O)NC(=O)COc1ncnc2sccc12
CCCSC1=NC2(CCN(C(=O)NC3CCCCC3)CC2)N=C1c1ccc(OC)cc1
CCCC1(C(=O)OC)C=C2C(=C(C)C(=O)C2C)CN1 (stereo not drawn)
O=C(c1cc(-c2ccco2)on1)N1CCc2ccccc2C1
O=C(NCc1ccccc1Cl)c1ccc2c(c1)ncn2-c1cccc(F)c1
Cc1cc(C)cc(NC(=O)Cn2ncn3c(cc4ccccc43)c2=O)c1
CC1(CCc2ccccc2)NC(=O)N(CC(=O)N2CC(=O)Nc3ccccc32)C1=O (stereo not drawn)
FC(F)(F)c1ccncc1-c1nnnn1-c1ccc(Cl)cc1
O=C(CN1CCOCCOCCN(CC(=O)Nc2ccccc2)CCOCC1)Nc1ccccc1
COc1ccc(-c2oc3ncn4nc(-c5ccccc5OC)nc4c3c2-c2ccc(OC)cc2)cc1
O=Nc1c(O)n(Cc2ccc(Cl)cc2Cl)c2ccccc12
O=C(c1ccc(-c2nnc(Nc3ccccc3)c3ccccc23)cc1)N1C[C@H]2C[C@H](C1)c1cccc(=O)n1C2
COc1ccc([N+](=O)[O-])cc1N(CC(=O)NCC1CCCO1)S(C)(=O)=O (stereo not drawn)
COc1cc(CN(C(=O)c2ccccc2)c2ccccn2)cc(OC)c1OC
CC(=O)N(Cc1ccc(F)cc1)Cc1nc2ccccc2c(=O)[nH]1
Cc1cc(C)c(OCC(=O)Nc2cc(C(=O)O)cc(C(=O)O)c2)cc1C
O=C(NNC(=S)NC(=O)c1ccccc1[N+](=O)[O-])c1ccccc1O
CC1(C)CC(N2CCOCC2)=CC(=[N+]2CCOCC2)C1
CCOC(=O)NC(=O)c1cn(CCN(C)C)c(=O)[nH]c1=O
CC(C)OCCCNC(=O)CN1C(=O)/C(=C/c2ccccc2)Sc2ccccc21

Potency, inconclusive:
CCOC(=O)c1ccc(NC(=O)CC2C(=O)N(c3cccc(OC)c3)C(=O)N2Cc2cccnc2)cc1 (stereo not drawn) 3.16 µM [activator, partial curve, poor fit]
O=C(Nc1ncc(Cc2cccc(Cl)c2)s1)c1cccs1 14.1 µM [inhibitor, partial curve]
Cc1ccc2c(=O)cc(C(=O)Nc3ccc(S(=O)(=O)N4CCCCC4C)cc3)oc2c1C (stereo not drawn) 3.16 µM [inhibitor, partial curve, poor fit]
Oc1ccccc1/C=N/c1c(-c2ccco2)nc2ccccn12 35.5 µM [inhibitor, single point]
Nc1cc(-c2ccc(Cl)cc2)nn1S(=O)(=O)c1ccc(Cl)cc1 1.78 µM [inhibitor, partial curve]
COc1ccccc1NC(=O)Nc1nnc(CC(=O)Nc2ccccc2)s1 5.01 µM [inhibitor, full curve, poor fit]
Cc1ccc(C(=O)N2CCN3C(=O)c4ccccc4C23c2ccccc2)cc1 (stereo not drawn) 7.94 µM [inhibitor, single point]
CCCNC(=O)c1noc2c1CCc1ccccc1-2 0.224 µM [activator, full curve, poor fit]
COc1cccc(N2C(=O)C(CC(=O)Nc3ccccc3)N(CCc3sccc3C)C2=O)c1 (stereo not drawn) 7.94 µM [inhibitor, full curve]
Cc1ccc(-c2cc(C(=O)N3N=C(C(F)F)CC3(O)C(F)F)c3ccccc3n2)cc1C (stereo not drawn) 14.1 µM [inhibitor, partial curve]
CO/N=C(\C(=O)N[C@@H]1C(=O)N2C(C(=O)O)=C(CSc3nc(=O)c(O)nn3C)CSC12)c1csc(N)n1 (stereo partly drawn) 35.5 µM [inhibitor, single point]
O=C1CCNc2c(Cl)cccc21 0.355 µM [inhibitor, full curve, poor fit]
N#C/C(=C/c1ccc(O)cc1)c1nc(-c2ccc(-c3ccccc3)cc2)cs1 39.8 µM [inhibitor, single point]
O=C(Cn1ncc(Cl)c(Cl)c1=O)NC1CCS(=O)(=O)C1 (stereo not drawn) 20 µM [inhibitor, partial curve]
Cc1ccc(S(=O)(=O)Nc2ccccc2CNc2ccccn2)cc1 11.2 µM [inhibitor, partial curve, poor fit]
CCOC(=O)CSc1nnc(CNC(=O)c2ccco2)n1-c1ccc(F)cc1 11.2 µM [inhibitor, partial curve]
COc1ccc(C(=O)CNc2ccccc2CO)cc1 35.5 µM [inhibitor, single point]
CCc1ccc(NCc2cc3cc4c(cc3n(CC(=O)Nc3ccc(OC)cc3)c2=O)OCO4)cc1 3.16 µM [activator, partial curve]
N#CC1=C2SCN(c3ccccc3)CN2C(=O)CC1c1ccccc1Cl (stereo not drawn) 31.6 µM [inhibitor, partial curve, poor fit]
O=C1/C(=C/c2cccs2)SC(=S)N1N1CCOCC1 1.26 µM [inhibitor, full curve, poor fit]
CCSc1nc2sc3c(c2c(=O)n1-c1ccc(OC)cc1)CCN(C)C3 3.55 µM [inhibitor, full curve, poor fit]
Cc1ccccc1-c1nc(-c2ccc(NC(=O)c3cccs3)cc2)no1 15.8 µM [inhibitor, partial curve]
CCOC(=O)C1=C(C)N=c2s/c(=C/c3ccco3)c(=O)n2C1c1cccc(OC)c1 (stereo not drawn) 15.8 µM [inhibitor, partial curve]
CC(C)C[C@H](NC(=O)c1nc[nH]c1C(=O)NCc1ccccc1)C(=O)OC(C)(C)C 6.31 µM [inhibitor, partial curve]
COc1ccc(CCNc2ncnc3c2cnn3-c2ccc(F)cc2)cc1 14.1 µM [inhibitor, partial curve, poor fit]
CCOC(=O)COc1ccccc1/C=C\[N+](=O)[O-] 17.8 µM [activator, partial curve, poor fit]
Cc1ccc(Cl)cc1NC(=O)Cn1nnc2sc3c(c2c1=O)CCC(C(C)(C)C)C3 (stereo not drawn) 2 µM [inhibitor, full curve]
O=[N+]([O-])c1cccc(-c2nc(NCc3ccccc3)c3ccccc3n2)c1 28.2 µM [inhibitor, partial curve]
CCOC(=O)c1cccnc1SCc1cc(=O)n2ccccc2n1 3.55 µM [inhibitor, single point]
CCOc1ccc(-n2c(-c3ccc(Br)cc3)cc3c2CC(C)(C)CC3=O)cc1 39.8 µM [inhibitor, single point]
CCc1nccn1C(=O)c1cnn2c(C(F)F)cc(-c3ccc(C)cc3)nc12 0.562 µM [inhibitor, full curve]
O=C1CCCC1C(O)c1ccc2ccccc2c1 (stereo not drawn) 3.98 µM [inhibitor, single point]
Cc1cc(C)cc(C(=O)NC2C(=O)N3C(C(=O)O)=C(CSc4nnc(C)s4)CSC23)c1 (stereo not drawn) 12.6 µM [inhibitor, partial curve]
CC(C)c1ccc(-c2noc(SCC(=O)N3CCN(c4ccccc4F)CC3)n2)cc1 5.62 µM [inhibitor, single point]
CC1(OC(=O)c2cnc3ccccc3n2)C(=O)C=C2C=C(C3CC3)OC=C2C1=O (stereo not drawn) 39.8 µM [inhibitor, single point]
O=C(NC(=S)Nc1ccccc1N1CCCCC1)c1ccco1 7.08 µM [inhibitor, partial curve]
O=C(Nc1nc2cc3c(cc2s1)OCCO3)c1cccc(S(=O)(=O)N2CCOCC2)c1 35.5 µM [inhibitor, single point]
Cc1ccc(CNC(=O)c2ccc3c(c2)NC(=O)C(CS(=O)(=O)Cc2cccc(C)c2)N3)cc1 (stereo not drawn) 11.2 µM [inhibitor, partial curve]

Potency, active:
CC(C)(C)OC(=O)[C@H](Cc1ccccc1)NC(=O)c1[nH]cnc1C(=O)Nc1ccc(Cl)cc1 12.6 µM
